Among the data in PubChem BioAssay AID463173 (ICCB-Longwood Screening Facility, Harvard Medical School, 2010) are survival values, retold here.

Screen size: about 52,000 compounds; about 1,700 (3.3%) were called active. No stated cut-off is given here; in the data, active means survival mostly below about 52% (no sharp cut-off); inactive means mostly above about 56%. Some of the results follow.

For the assay, the system named is Wild type. The experiment in a line: S. aureus survival, RN4220 and DeltatarO strains – OD600, teichoic acid synthesis inhibitors, primary screen (AID 463173). Conditions: S. aureus RN4220 wild type/DeltatarO growth, OD600, 18 h, active compounds read low; concentration not given here unless noted.
In the case of `CC(C)Cc1nc2cccnc2n1C1CCNCC1`, the survival was inactive: 129%. In the case of `Cc1ccc(NC(=O)Cn2cc(C(=O)c3ccccc3)c3ccccc32)c(C)c1`, the survival was inactive: 81%.

Take `COc1ccc(-n2c(/C=C/c3cccc(F)c3)nc3ccccc3c2=O)cc1Cl`: the survival is inactive: 80%. For the compound `Cc1cccc(CN2C(=O)CN=C(c3ccccc3)c3ccccc32)c1`, the survival was inactive: 73%. To `CCOC(=O)c1[nH]c(C)c(C=C(C#N)C#N)c1C` belongs inactive: 101%; to `COc1cccc(C2SCC(=O)Nc3c2c(C)nn3-c2ccc(C)c(Cl)c2)c1OC` (configuration not stated), inactive: 96%. Take `O=c1c2ccccc2nc(/C=C/c2ccccc2F)n1-c1cccc(O)c1`: the survival was active: 11%. With `CCc1nc(SC)ncc1C(=O)Nc1ccc(Cl)cc1C(=O)c1ccccc1`, the survival is inactive: 73%. In the case of `Cc1cccc(-c2nn3c(=O)cc(CN4CCN(C(=O)COc5ccc(Cl)cc5)CC4)nc3s2)c1`, the survival was inactive: 153%. Turning to `Cc1cccc(CN2CCN(C(=O)COc3ccccc3)CC2)c1`, the survival is inactive: 108%. For `CCn1cc(C=C(C#N)C#N)c2ccccc21`, the survival was inactive: 104%. With `C=C1N2CCC(CC2)C1(O)c1ccc(C)cc1` (configuration not stated), the survival is inactive: 98%. For `COc1ccc(NC(=O)CCc2nc(C3=CCN(Cc4cccc(Cl)c4)CC3)no2)c(OC)c1`, the survival was inactive: 127%.

Take `O=S1(=O)N(Cc2ccccc2Cl)CCCN1Cc1ccccc1Cl`: the survival was active: -4%. To `O=C(Nc1ccc2c(c1)OCO2)c1cccn(Cc2cccc([N+](=O)[O-])c2)c1=O` belongs inactive: 77%; to `CN1CCN(C(=O)COc2cccc3ccccc23)CC1`, inactive: 107%. With `Cc1ccccc1OCC(=O)N1CCN(CCc2ccccn2)CC1`, the survival was inactive: 83%.

Turning to `O=C1/C(=C\c2cc3c(cc2Cl)OCO3)N2CCC1CC2`, the survival was inactive: 110%.

`COc1ccc(OCC(=O)N2CCN(Cc3cc(=O)n4nc(-c5ccc(OC)cc5)sc4n3)CC2)cc1`: the survival was inactive: 138%. To `COc1ccc(CC2C(=O)NC(=O)N(c3ccccc3)C2=O)c(OC)c1` (configuration not stated) belongs inactive: 114%; to `Cc1cccc(Cn2cccc(C(=O)Nc3ccc(F)cc3F)c2=O)c1`, inactive: 73%.

With `Cc1ccc(OCC(=O)N2CCN(CCc3ccncc3)CC2)cc1`, the survival was inactive: 85%. Consider `CC(C)c1ccc(OCC(=O)N2CCN(CCc3ccccn3)CC2)cc1`, for which the survival was inactive: 79%. With `COc1ccc(OCC(=O)N2CCN(Cc3ccc(SC)cc3)CC2)cc1`, the survival was inactive: 127%. As to `COc1ccccc1CN1CCN(Cc2ccccc2OC)CC1`, the survival is inactive: 103%.

In the case of `Cc1ccccc1-n1c(/C=C/c2ccc(N(C)C)cc2)nc2ccccc2c1=O`, the survival is active: 7%. `O=C(c1ccc2c(c1)N(Cc1ccc(F)cc1)C(=O)c1ccccc1S2)N1CCC2(CC1)OCCO2`: the survival was inactive: 69%. As for `CC(C)NC(C)C(=O)c1ccc2ccccc2c1` (configuration not stated), the survival is inactive: 109%. Turning to `CN1C(=C2C(=O)NC(=O)NC2=O)Sc2ccccc21`, the survival is inactive: 106%. Consider `Cc1nnc(NC(=O)c2cccn(Cc3cccc(F)c3)c2=O)s1`, for which the survival was inactive: 71%. Turning to `Cc1ccc(OCC(=O)Nc2ccc(Cl)cc2C(=O)c2ccccc2)cc1C`, the survival is inactive: 75%.

Take `COc1ccc(CN2CCN(Cc3ccccc3)CC2)cc1`: the survival was inactive: 105%. Consider `CCN(CC)c1ccc2c3c(c(=O)oc2c1)C(c1cc2c(C)cc(C)cc2[nH]c1=O)C(C#N)=C(N)O3` (configuration not stated), for which the survival was inactive: 81%.

Turning to `COc1cccc(-c2nn3c(=O)cc(CN4CCN(C(=O)COc5ccccc5C)CC4)nc3s2)c1`, the survival was inactive: 74%. As to `CCOc1ccc2nc(NC(=O)c3cccn(Cc4ccccc4Cl)c3=O)sc2c1`, the survival was inactive: 68%. In the case of `CCOc1ccc(CN(CCc2ccc3c(c2)OCO3)Cc2ccc(OC)c(Br)c2)cc1`, the survival is inactive: 67%. On to `C[N+]12CN3CN(CN(C3)C1)C2`, for which the survival was inactive: 112%. On to `Cn1c(O)c(C=Nc2ccccc2)c(=O)n(C)c1=O`, for which the survival is inactive: 99%. In the case of `Nc1c2c(nc3sc4c(c13)CCCC4)CCCC2`, the survival was inactive: 118%. As to `Cc1ccccc1CN1C(=O)C(C)N=C(c2ccccc2)c2ccccc21` (configuration not stated), the survival was inactive: 68%. `CCc1ccc(OCC(=O)N2CCN(CCc3ccncc3)CC2)cc1`: the survival is inactive: 107%. For `Cn1cccc1CNCCc1ccccc1`, the survival is inactive: 110%. Turning to `Cc1cccc2cc(C=C(C#N)C#N)c(Cl)nc12`, the survival is inactive: 93%. To `Cc1ccc(C(C)C)c(OCC(=O)N2CCN(CCc3ccncc3)CC2)c1` belongs inactive: 76%; to `CCOc1ccc(CN(CCc2ccc3c(c2)OCO3)Cc2cc(OC)ccc2O)cc1`, inactive: 55%; to `O=C1NC(=O)C(CCc2ccncc2)(CCc2ccncc2)C(=O)N1C1CCCCC1`, inactive: 96%. For `Cc1ccc(NC(=O)N(Cc2ccc3c(c2)OCO3)C2CCN(Cc3ccccc3)CC2)cc1C`, the survival was active: -1%.

Take `Cc1cc(OCC(=O)N2CCN(CCc3ccncc3)CC2)ccc1Cl`: the survival is inactive: 85%. On to `CSc1ccc(/C=C/c2nc3ccccc3c(=O)n2-c2cccc(Cl)c2C)cc1`, for which the survival was inactive: 74%. Turning to `N#Cc1cc2c(nc1SCC(=O)Nc1ccc(C(F)(F)F)cc1)C1CCN2CC1`, the survival is active: 0%. Consider `COc1ccc(-n2c(/C=C\c3ccccc3F)nc3ccccc3c2=O)c(OC)c1`, for which the survival is inactive: 68%. With `CC(C)c1ccc(OCC(=O)N2CCN(CCc3ccncc3)CC2)cc1`, the survival was inactive: 81%. For the compound `CCN1CCN(Cc2ccccc2C#N)CC1`, the survival is inactive: 106%.

Take `CCc1cccc(NC(=O)CN2C(=O)CN=C(c3ccccc3F)c3cc(Cl)ccc32)c1`: the survival was inactive: 83%. With `COc1ccc(OC)c(C(c2c(O)c3ccccc3oc2=O)c2c(C)n(C)n(-c3ccccc3)c2=O)c1` (configuration not stated), the survival is inactive: 64%. On to `Cc1ccc2c(c1)C1CN(C)CCC1N2` (configuration not stated), for which the survival is inactive: 118%. To `O=c1c2ccccc2nc(-c2ccco2)n1-c1ccc(Cl)cc1` belongs inactive: 112%; to `CCCCn1c(C)c(C(=O)OCC)c2cc(OC)ccc21`, inactive: 110%; to `O=C1CCCN1C(=O)c1cc(Cl)cc(Cl)c1`, inactive: 119%.

Take `Cc1cccc(Cn2cccc(C(=O)Nc3cc(C)on3)c2=O)c1`: the survival was inactive: 73%. To `OC1CCNC2CCCCC12` (configuration not stated) belongs inactive: 83%; to `Cc1nc2ccccc2c(=O)n1-c1cccc(O)c1`, inactive: 93%. In the case of `CSc1ccc(CN2CCN(C(=O)COc3cccc(C)c3)CC2)cc1`, the survival was inactive: 55%. Turning to `Cc1cccnc1-n1c(C)nc2ccccc2c1=O`, the survival is inactive: 98%. As to `Cc1cccc(-n2c(/C=C/c3c[nH]c4ccccc34)nc3ccccc3c2=O)c1`, the survival was inactive: 20%. To `COc1ccc(-c2nc(CN3C(=O)CN=C(c4ccccc4)c4ccccc43)c(C)o2)cc1` belongs inactive: 93%; to `CN(C)c1ccc(/C=C2/C(=O)C3CCN2CC3)cc1`, inactive: 104%; to `COc1ccc(C2(CN)CCOCC2)cc1`, inactive: 95%.

On to `COc1ccc(C=C2C(=O)N(C)C(=O)N(C)C2=O)cc1`, for which the survival was inactive: 98%. To `Cc1cc(NC(=O)c2cccn(Cc3ccccc3)c2=O)no1` belongs inactive: 72%; to `CCCC1=Nc2cc(C(=O)NC3CCC(C)CC3)ccc2Sc2ccccc21` (configuration not stated), inactive: 40%; to `O=C(CN1C(=O)CN=C(c2ccccc2)c2ccccc21)Nc1cccc(C(F)(F)F)c1`, inactive: 48%.

In the case of `Cc1cccc2sc(NC(=O)c3cccn(Cc4ccccc4)c3=O)nc12`, the survival is inactive: 78%.

Regarding `CN1CCc2c(C#N)c(N)n(N)c(=S)c2C1`, the survival was inactive: 96%. To `N#CC(C#N)=Cc1ccc(Sc2ccccc2)o1` belongs inactive: 107%; to `CC(C)n1cc(C(=O)N(C2CC2)C(C(=O)NC2CCCC2)c2ccccc2)cn1` (configuration not stated), inactive: 101%. `CNCCCc1ccccc1`: the survival is inactive: 106%. Consider `CC(N)Cc1cn(Cc2ccccc2)c2ccccc12` (configuration not stated), for which the survival was inactive: 120%. As for `Nc1c(C(=O)Nc2cccc(Br)c2)sc2nc3c(cc12)N1CCC3CC1`, the survival was inactive: 63%. Turning to `c1cncc(C2CCCCN2Cc2ccc3c(c2)OCO3)c1` (configuration not stated), the survival is inactive: 111%.

In the case of `c1coc(CN2CCNCC2)c1`, the survival was inactive: 106%.

Consider `COC1CCCCC1NC1CCCC1` (configuration not stated), for which the survival is inactive: 92%. To `CN1CCc2c(C#N)c(Cl)nc(NCc3ccccc3)c2C1` belongs inactive: 103%; to `O=C1C2CN3CN(C2)CC1(c1ccccc1)C3`, inactive: 105%; to `CCOc1ccc(CN(CCc2ccc3c(c2)OCO3)Cc2cccc(C)c2)cc1`, inactive: 40%. `Cc1cc(OCC(=O)N2CCN(CCc3ccccn3)CC2)cc(C)c1Cl`: the survival is inactive: 80%. Consider `CCOC(=O)C1=C(C)OC(N)=C(C#N)C12C(=O)N1c3c(cccc32)C(C)CC1(C)C` (configuration not stated), for which the survival is inactive: 126%. For `OCCCCNC1CCCCC1`, the survival is inactive: 98%. Consider `CCN(CC)C(=O)c1ccc(NC(=O)CCn2nc(-c3ccc(C)cc3)c3ccccc3c2=O)cc1`, for which the survival was inactive: 64%. On to `Cc1cccc(C2CC(=O)Oc3c2c(=O)oc2ccccc32)c1` (configuration not stated), for which the survival is inactive: 144%. Take `COc1ccc(CN2CCN(C(=O)COc3ccccc3)CC2)c(OC)c1`: the survival was inactive: 151%. `CC(c1ccccc1)n1cncc1C(=O)N1CCCC1=O` (configuration not stated): the survival was inactive: 103%. To `CCN(CC)C(=O)c1ccc(NC(=O)CCn2nc(-c3ccc(Cl)cc3)c3ccccc3c2=O)cc1` belongs inactive: 66%; to `CN1C(=O)C(Cc2cccs2)C(=O)N(C)C1=O`, inactive: 107%. For the compound `O=C1NC(=S)NC(=O)C1C1CCCCC1`, the survival is inactive: 99%. `CC(C)C(=O)c1cn(Cc2ccccc2C#N)c2ccccc12`: the survival is inactive: 115%. Take `COC(=O)c1ccc(NC(=O)c2cccn(Cc3ccccc3C)c2=O)cc1`: the survival is inactive: 88%.

For `O=S1(=O)N(Cc2ccccc2)CCCN1Cc1ccc(F)cc1Cl`, the survival is inactive: 76%.

Regarding `Cc1ccc(OCC(=O)Nc2ccc(Cl)cc2C(=O)c2ccccc2)cc1`, the survival was inactive: 64%. Consider `O=C(Nc1ccc(Br)cc1C(=O)c1ccccc1)c1ccccc1`, for which the survival is active: -1%. `CCN(CC)Cc1c[nH]c2ccccc12`: the survival was inactive: 105%. Consider `CC1CC2(O)c3no[n+]([O-])c3CCC2N1O` (configuration not stated), for which the survival was inactive: 109%.
